Measurements reported in PMC4336329 (PLoS ONE, 2015).
Out of some 310,000 compounds screened, about 2,200 (0.71%) showed an effect of 50% or more. The effect is printed as a negative number. The list shows a part of the results.

Molecular target: human ether-à-go-go-related gene (hERG) potassium channel (human, UniProt Q12809)
Assay: primary screen, population patch clamp on CHO cells stably expressing hERG

Sequence of human ether-à-go-go-related gene (hERG) potassium channel (Q12809 whole entry, looked up): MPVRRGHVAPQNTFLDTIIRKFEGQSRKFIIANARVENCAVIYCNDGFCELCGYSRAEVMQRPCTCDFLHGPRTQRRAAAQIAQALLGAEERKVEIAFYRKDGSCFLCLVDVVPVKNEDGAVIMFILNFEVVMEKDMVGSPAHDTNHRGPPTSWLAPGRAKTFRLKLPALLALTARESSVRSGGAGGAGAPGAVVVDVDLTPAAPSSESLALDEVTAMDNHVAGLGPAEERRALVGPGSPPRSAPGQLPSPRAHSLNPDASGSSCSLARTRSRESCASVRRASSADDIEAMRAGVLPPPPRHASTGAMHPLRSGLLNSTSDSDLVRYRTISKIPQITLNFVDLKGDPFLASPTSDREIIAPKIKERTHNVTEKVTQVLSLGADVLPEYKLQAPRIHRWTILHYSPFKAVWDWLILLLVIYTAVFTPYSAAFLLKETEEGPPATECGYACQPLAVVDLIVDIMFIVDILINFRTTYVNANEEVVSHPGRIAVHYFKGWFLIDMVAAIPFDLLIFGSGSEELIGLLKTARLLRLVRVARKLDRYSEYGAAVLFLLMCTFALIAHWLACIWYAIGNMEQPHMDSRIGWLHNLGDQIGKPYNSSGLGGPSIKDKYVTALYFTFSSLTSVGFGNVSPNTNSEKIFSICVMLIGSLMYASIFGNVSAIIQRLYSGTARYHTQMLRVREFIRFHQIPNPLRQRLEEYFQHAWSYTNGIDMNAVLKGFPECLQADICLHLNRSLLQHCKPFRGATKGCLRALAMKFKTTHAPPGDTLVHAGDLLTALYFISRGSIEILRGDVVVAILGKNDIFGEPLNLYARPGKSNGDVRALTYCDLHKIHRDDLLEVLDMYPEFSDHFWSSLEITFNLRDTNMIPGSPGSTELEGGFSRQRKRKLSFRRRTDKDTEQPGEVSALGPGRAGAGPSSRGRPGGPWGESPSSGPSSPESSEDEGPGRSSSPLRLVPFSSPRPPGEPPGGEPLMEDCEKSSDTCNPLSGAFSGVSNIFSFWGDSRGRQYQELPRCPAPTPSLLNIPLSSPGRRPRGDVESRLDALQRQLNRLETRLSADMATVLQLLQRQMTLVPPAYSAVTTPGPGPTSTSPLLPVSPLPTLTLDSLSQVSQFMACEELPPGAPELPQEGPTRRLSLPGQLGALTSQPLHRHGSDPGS

Compound	hERG current change (%, negative = inhibition) at 1uM
CCOCCOC(=O)c1ccc(-n2cnc(C)n2)nc1	5.74%
Cc1ccc(NC(=O)CSc2nc(-c3ccco3)cc(C(F)(F)F)n2)cc1C	-4.17%
CC1CCCC(NC(=O)COC(=O)c2cccc(NS(=O)(=O)/C=C/c3ccccc3)c2)C1C (centres unmarked)	15%
CN(C)S(=O)(=O)c1ccc2[nH]cc(/C=C/c3nc4ccccc4c(=O)n3-c3ccccc3)c2c1	12.4%
Cc1ccc2cc(-c3noc(C4CCCCC4)n3)c(=O)[nH]c2c1	12.8%
Cc1ccc(C(=O)Nc2cccnc2)cc1Cl	9%
CCOc1ccc(NC(=O)CCNS(=O)(=O)c2ccc3c(c2)CC(C)N3C(C)=O)cc1 (centres unmarked)	12.6%
CCCCNCC1C(Oc2ccc(Cl)cc2)C(=O)N1c1ccccc1C.Cl (centres unmarked)	2.69%
Cc1sc(NC(=O)CSc2nnc(-c3ccccc3)o2)c(C#N)c1C	12%
CCOc1cc(-c2nn3cnnc3s2)cc(OCC)c1OCC	7.82%
NS(=O)(=O)c1ccc(NC(=S)NCc2ccccc2Cl)cc1	15.1%
COc1cc(OC)c(C2CC(=O)N3CN(c4ccc(C)cc4)CSC3=C2C#N)cc1OC (centres unmarked)	-0.377%
Cc1ccc(CN(C#N)c2nc(C)cc(C)n2)cc1	8.7%
CN1CCN/C1=C(/C(Cl)=C(Cl)Cl)[N+](=O)[O-]	16.2%
Cc1onc(-c2c(F)cccc2Cl)c1C(=O)OCC(=O)NC(c1ccccc1)c1ccccc1	-4.07%
CCN(CC)CCN(C(=O)c1ccc(S(=O)(=O)N2CCCCC2)cc1)c1nc2cc3c(cc2s1)OCO3.Cl	1.02%
CCOc1ccc(S(=O)(=O)Nc2cnc3ccccc3c2)cc1	1.61%
Cc1ccc(NS(=O)(=O)c2ccc(NC(=O)c3cccs3)cc2)c(C)c1	7.36%
N/C(CSc1nc(-c2ccccc2)c(-c2ccccc2)o1)=N\O	-10.3%
CC(=O)c1ccc(N2CCN(C(=O)c3ccc(C(=O)c4ccccc4)cc3)CC2)cc1	4.52%
CC(C)Oc1ccc(S(=O)(=O)N2CCOCC2)cc1NC(=O)C1CCCCC1	5.06%
COC(=O)C1=CO[C@@H](C)[C@H]2CN3CCc4c([nH]c5ccccc45)[C@@H]3C[C@H]12.Cl	-0.205%

Compound	hERG current change (%, negative = inhibition) at 1uM
CCC(C(=O)NC1CCCC1)N(C(=O)Cn1nnc(-c2cccs2)n1)c1cnc2ccccc2c1 (centres unmarked)	11.5%
CC1=C(C(=O)OCc2ccccc2)C(c2ccccc2OS(=O)(=O)c2ccc([N+](=O)[O-])cc2)NC(=O)N1CCCC(=O)O (centres unmarked)	6.89%
CN(C)c1ccc(C(=S)N2CCN(c3ccc([N+](=O)[O-])cc3)CC2)cc1	-4.99%
CCOC(=O)C1=C(C)Nc2ccccc2N/C1=N\S(=O)(=O)c1cccc(Cl)c1	7.87%
COc1ccc2c(C(=O)CN3CCN(CCO)CC3)c[nH]c2c1	-3.72%
Cc1ccc(C(=O)N2CCN(c3cccc(C)c3C)CC2)cc1S(=O)(=O)N1CCOCC1	-2.68%
CCC(=O)NCCc1nc2cc(NC(=O)c3cccc([N+](=O)[O-])c3)ccc2n1C	11.8%
O=C(COc1ccc(Br)cc1)N(CCO)CCO	7.4%
Cc1c(NC(=O)c2ccc(S(=O)(=O)N(C)c3ccccc3)cc2)c(=O)n(-c2ccccc2)n1C	15.4%
COc1cccc(OCC(O)CN2CCN(c3ccccn3)CC2)c1.Cl (centres unmarked)	6.51%
Cc1ccc2nc(N3C(=O)CNC3=S)sc2c1	21%
CC(C)Cc1cc(C(=O)N2CCCC(CO)(Cc3ccc(F)cc3)C2)no1 (centres unmarked)	-0.285%
COc1cccc(NC(=S)Nc2cc(C(=O)O)ccc2N2CC3CC(C2)c2cccc(=O)n2C3)c1 (centres unmarked)	12.3%
S=C(Nc1ccccc1)N1CCn2c1nc1ccccc12	0.203%
O=C(Cn1c(=O)[nH]c2ccccc2c1=O)Nc1ccc2c(c1)OCCO2	14.6%
O=C(NCC1CCCO1)c1ccc2c(=O)n(CC3CCCO3)c(SCC(=O)N3CCCC3)nc2c1 (centres unmarked)	5.44%
Nc1nnc(CC(=O)N/N=C/c2ccc(-c3ccccc3Cl)o2)s1	14.1%
CNC(=S)Nc1cccc([N+](=O)[O-])c1	-8.83%
O=C(c1ccc(NS(=O)(=O)c2ccc3[nH]c(=O)[nH]c3c2)cc1)N1CCCCC1	-4.74%
CCOC(=O)c1ccc(NC(=O)Nc2ccon2)cc1	11.5%
Cc1nnc(SCC(=O)NC(C)(C)C)n1NCc1cccc(Br)c1	6.96%
COc1cccc(NC(=O)CCSc2ccc3ccccc3n2)c1	6.26%

Compound	hERG current change (%, negative = inhibition) at 1uM
Cc1cccc(CN2CCN(CC(C)C)C(CCO)C2)n1 (centres unmarked)	9.17%
CN1CCN(C(=O)/C=C/c2cccc(Cl)c2)CC1	12.5%
O=C1NC(c2ccccc2)=C(c2ccc3ccccc3n2)C(c2ccc(F)cc2)N1 (centres unmarked)	7.04%
CCNS(=O)(=O)c1ccc(CCC(=O)N2CCN(c3ccc(OC)cc3)CC2)cc1	9.79%
Cc1cc(N2CCN(C)CC2)ccc1NC(=O)c1ccc(-c2ccc(Cl)cc2)o1	-4.7%
O=C(Nc1ccc2oc(-c3ccccc3)nc2c1)c1ccccc1F	1.51%
CC(C)OC(=O)CSc1nc(N)c(C#N)c(-c2cccs2)c1C#N	9.92%
Cc1ccc(NC(=O)C(C)N2C(=O)c3ccccc3C2=O)nc1 (centres unmarked)	20.4%
CCN(CC(=O)Nc1ccc2c(c1)OCCO2)S(=O)(=O)c1ccc(C)cc1	-2.78%
COc1ccc(OC2CCN(S(=O)(=O)c3cccc(F)c3)CC2)cc1	10.4%
Cc1ccccc1N(C(=O)CNC(=O)c1ccco1)C(C(=O)NC1CCCCC1)c1ccncc1 (centres unmarked)	5.2%
CC(=O)c1cccc(NC(=O)CNC(=O)c2cc3ccccc3o2)c1	10.9%
O=C(COc1ccccc1Cl)Nc1ccccc1C(=O)NC1CC1	1.14%
O=C(O)CCCC(=O)Nc1ccc(Cl)cc1	9.18%
CC(C)C(NC(=O)c1cccc(S(=O)(=O)N2CCOCC2)c1)C(=O)NCc1ccc(Cl)cc1 (centres unmarked)	12.6%
CCN(CC)C(=O)CC(c1ccccc1)c1ccco1 (centres unmarked)	2.11%
COc1ccc(N)cc1S(=O)(=O)Nc1ccccc1Cl	13.9%
O=c1c(C/C=C/c2ccccc2)c(O)ccn1CCc1c[nH]c2ccccc12	13.4%
Cc1ccc(C(=O)OCC(=O)N(C)c2ccccc2)c(C)c1	18.9%
CN1C(C(=O)NCc2cccc(C(F)(F)F)c2)CC2Cn3c(nc4cc5ccccc5cc43)C21 (centres unmarked)	-10.8%
COc1ccc(CNc2ncc(-c3ccccc3)n2C)c2ccccc12.O=C(O)C(=O)O	10.6%
COc1cccc(NC(=O)Cn2cc(C#N)c3ccccc32)c1	9.84%

Compound	hERG current change (%, negative = inhibition) at 1uM
Br.N=C(N)SCc1nc2ccccc2c(=O)n1-c1ccccc1Cl	1.95%
CC(=O)C1=C(C)N(Cc2ccccc2)C(=O)N[C@H]1c1cccs1	2.8%
O=C(O)C1CC=CCC1C(=O)Nc1cccnc1 (centres unmarked)	6.4%
Cc1cc(=O)[nH]c2c(C)cc(S(=O)(=O)Nc3ccc(O)cc3)cc12	13.3%
COc1ccc(S(=O)(=O)Cc2ccc(C(=O)N3CC(C)CC(C)C3)o2)cc1 (centres unmarked)	-5.28%
COc1cc(C)c(C)cc1S(=O)(=O)NC1CC(C)(C)NC(C)(C)C1	11.3%
CCOc1ccc(CN2CCSCC2)cc1	8.31%
CCn1c(SCc2nc3ccccc3c(=O)[nH]2)nnc1-c1cccnc1	2.89%
Cc1ccc(S(=O)(=O)N2CCCC2C(=O)Nc2nc3c(s2)CCCC3)cc1 (centres unmarked)	13.2%
CC1=NS(=O)(=O)c2cc(Cl)ccc2N1	3.24%
COc1ccccc1C(=O)Nc1cc2cc(Cl)ccc2oc1=O	-0.255%
CN(CCO)C(=O)CCC(=O)Nc1ccc(S(N)(=O)=O)cc1	-4.32%
C=CCN(CC=C)S(=O)(=O)c1ccc(NC(=S)NC(=O)/C=C/c2ccc(C)cc2)cc1	5.21%
COc1ccc(-c2csc(N3CCN(c4cc(C)nc5ccccc45)CC3)n2)cc1OC	0.19%
CCC(C(=O)Nc1ccc(C(=O)N2CCCC2)cc1)c1ccccc1 (centres unmarked)	12.7%
O=c1c2ccccc2[nH]c(=S)n1Cc1cccnc1	7.38%
CCCCCOc1ccc(CSc2n[nH]c(C)n2)cc1	16.1%
CNC(=O)C1CC(=O)N(CCCc2ccccc2)C(=Nc2ccccc2)S1 (centres unmarked)	5.55%
O=C(Cc1ccccc1)N[C@H](c1ccccc1)P(=O)(O)CO	6.22%
O=C(CC(Cc1ccccc1)C(=O)O)NCCc1ccc2c(c1)OCO2 (centres unmarked)	-9.79%
